Results from PubChem BioAssay AID493208 (National Center for Advancing Translational Sciences (NCATS), 2011).
Out of some 44,000 compounds screened, about 340 (0.77%) were called active. Another 5% or so got no clear call; they are omitted. The call rests on the fitted dose curve; in most records, active means well fitted inhibition curve with a large enough effect; inconclusive means small, poorly fitted or top-dose-only effect; inactive means flat fitted curve, though single readings scatter. The list shows a part of the results.

Assay: Acumen qHTS Assay for Inhibitors of the mTORC1 Signaling Pathway in MEF (Tsc2-/-, p53-/-) Cells: Sytravon;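 further: plate controls were DMSO for no effect and rapamycin for full effect; nearly all actives have a fitted effect of over 50% in size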
Conditions: phospho-rpS6 immunofluorescence/PI, 24 h; series mostly up to 38.3 µM; activity change, negative = inhibition: at the top concentration
Outline: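 Plate MEFs (Tsc2-/-, p53-/-, empty vector) in DMEM/10% FBS; after 24 h add compound, incubate 24 h at 37 degree Celsius; fix in PFA/TX-100, block, stain phospho-rpS6 and 10 uM PI; scan at 488 nm; report % positive cells.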

| Compound | activity change, negative = inhibition |
| --- | --- |
| CCc1ccc(-c2nc(CS(=O)CC(=O)NCc3ccc(F)cc3)c(C)o2)cc1 (centres undefined) | inactive: -5.64% |
| COc1ccc(CCNC(=O)c2ccc3c(c2)nc2n3CCCCC2)cc1OC | inactive: -13.9% |
| CCCn1cnc2cc(NC(=O)c3cc(OC)c(OC)c(OC)c3)ccc21 | inactive: -6.25% |
| Cc1cccc(N2CCN(Cc3nnc(-c4cccc(Br)c4)o3)CC2)c1C | inactive: 5.51% |
| CCCOC(=O)c1cccc(NC(=O)CSc2nnc3cc(C)c4ccccc4n23)c1 | inactive: -10.1% |
| CC(=O)c1ccc(NC(=O)c2nc(-c3ccccc3)n(-c3ccc(C)cc3)n2)cc1 | inactive: 1.38% |
| O=C(NCc1cccc(Cl)c1)C1CCCN(c2nn3cc(-c4ccc(F)cc4)nc3s2)C1 (centres undefined) | inactive: 1.84% |
| Clc1ccc2nc(-c3ccc(N4CCOCC4)cc3)c(Nc3ccccc3)n2c1 | inactive: 1.32% |
| COc1ccccc1NC(=O)Cn1c(=O)oc2cc(S(=O)(=O)NCc3ccccc3)ccc21 | inactive: -6.03% |
| CCc1ccccc1N(C)C(=O)c1nn(-c2ccc(OC)cc2)c(=O)c2c1c1ccccc1n2C | inactive: -0.403% |
| Cc1cccc(NC(=O)c2ccc3oc(=O)c(S(=O)(=O)c4ccc(F)cc4)cc3c2)c1C | inactive: 3.86% |
| CCOc1ccc(CNc2cc(C)nc3nc(-c4cccc(C)c4)nn23)cc1OC | inactive: -0.893% |
| CCOc1ccc(S(=O)(=O)c2cc3cccc(OCC)c3oc2=O)cc1 | inactive: -12.2% |
| CC1CCc2c(sc3nnn(Cc4ccccc4Cl)c(=O)c23)C1 (centres undefined) | inactive: -0.189% |
| CCOC(=O)c1cc(C)n(CC2CCC(C(=O)Nc3cccc(C(C)=O)c3)CC2)c1C (centres undefined) | inactive: -0.791% |
| CCOc1ccccc1CNCc1c(C(=O)O)n(Cc2ccccc2)c2cc(OC)ccc12 | inactive: -10.6% |
| CCOc1ccccc1Oc1ncnc2c1oc1ccccc12 | inactive: -2.1% |
| CC1CCC(NC(=O)c2ccc3c(c2)N(Cc2ccccc2F)C(=O)c2ccccc2S3(=O)=O)CC1 (centres undefined) | inactive: -10.2% |
| COc1ccccc1OCc1nc2ccccc2n1Cc1ccccc1 | inactive: -6.05% |
| CCOc1ccccc1C1C(C(=O)Nc2ccccc2)=C(C)Nc2nc(-c3ccccc3)nn21 (centres undefined) | inactive: 0.783% |
| CCCCn1c(SCC(=O)c2ccccc2)nc2sc3c(c2c1=O)CCCC3 | inactive: -6.77% |
| CCOc1ccccc1NCc1nnc2n1CCCCC2 | inactive: 3.44% |
| Cc1ccc(-c2nnc3c4ccccc4c(-c4ccccc4)nn23)cc1 | inactive: -7.63% |
| COc1ccc(N2CCN(C(=O)c3cnc(N4CCOCC4)c4ccccc34)CC2)cc1 | inactive: -13.6% |
| COc1ccc(C)cc1NC(=O)c1nnn(CC(=O)Nc2c(C)cccc2C)c1N | inactive: -4.73% |

| Compound | activity change, negative = inhibition |
| --- | --- |
| Cc1ccc(C)c(S(=O)(=O)c2nnn3c2nc(NC2CCCC2)c2sccc23)c1 | inactive: 0.0273% |
| CCCCN(CC)C(=O)c1ccc2c(c1)NC(=O)c1ccccc1S2 | inactive: -6.39% |
| CCc1cccc(NC(=O)c2cc3c(=O)oc4ccc(C)cc4c3s2)c1 | inactive: 8.14% |
| COc1ccc(CNC(=O)C(CC(C)C)NS(=O)(=O)c2ccc3c(c2)oc(=O)n3C)cc1 (centres undefined) | inactive: 0.344% |
| Cc1ccc(S(=O)(=O)c2cn(Cc3ccccc3)c3cc(N4CCCC4)c(F)cc3c2=O)c(C)c1 | inactive: -7.49% |
| CSc1nnc(NC(=O)c2cc(=O)c3cc(C)c(C)cc3o2)s1 | inactive: -0.132% |
| CCOc1c(CNCCSc2nnnn2C)cccc1OC | inactive: -19.3% |
| COc1ccc(OC)c([C@@H]2Nc3ccc(C(=O)O)cc3[C@@H]3C=CC[C@@H]32)c1 | inactive: -0.233% |
| Cc1cccc(C)c1NC(=O)C(=O)NCC(c1ccc2c(c1)OCO2)N1CCN(C)CC1 (centres undefined) | inactive: 1.22% |
| Cc1ccc(Cn2c(=O)n(Cc3ccc(C(=O)NC4CCN(Cc5ccccc5)CC4)cc3)c(=O)c3ccccc32)cc1 | inactive: -28% |
| CCc1cccc(NC(=O)C2CCCN2S(=O)(=O)c2ccc3nc(-c4ccccc4)[nH]c3c2)c1 (centres undefined) | inactive: -8.82% |
| CC(=O)c1ccc(NC(=O)CCn2cccn2)cc1 | inactive: -5.01% |
| O=C(c1ccc(Br)cc1)N(Cc1ccco1)c1ccccn1 | inactive: 2.44% |
| CN1C(=O)Cc2cc(S(=O)(=O)NCc3ccccc3Cl)ccc21 | inactive: -9.87% |
| CCc1ccc(NC(=O)Cn2c(=O)n(-c3cccc(OC)c3)c(=O)c3c(C)c(C(=O)N(C)C)sc32)cc1 | inactive: 1.72% |
| Cc1ccc(-n2c(C)nc3c(cnn3-c3ccccc3)c2=O)cc1 | inactive: -4.46% |
| CCCc1ccc(OCc2ccc(C(=O)Nc3ccccc3C(=O)OC)o2)cc1 | inactive: -7.71% |
| CCc1ccc(CNC(=O)c2cccc(-n3c(C)nc4cccnc43)c2)cc1 | inactive: -13% |
| Cc1ccc2oc(C(=O)N3CCC(c4nc5ccccc5s4)CC3)c(C)c2c1 | inactive: -22.4% |
| COc1ccc(N(CC(=O)N2CCCCC2)S(=O)(=O)c2ccc(OC)c(OC)c2)cc1 | inactive: 3.84% |
| COc1ccc(C2=C(N3CCN(c4cccc(C)c4C)CC3)c3ccccc3C2=O)cc1 | inactive: 0.771% |
| Cc1ccc(NC(=O)CC2Oc3ccccc3NC2=O)cc1C (centres undefined) | inactive: 0.753% |
| COc1ccc(CCNC(=O)CN2C(=O)COc3ccc(S(=O)(=O)N4CCCC4)cc32)c(OC)c1 | inactive: 1.75% |
| Cc1c(C(=O)NCc2cccc(Cl)c2)sc2nc3n(c(=O)c12)CCCC3 | inactive: 7.42% |
